Assay results reported in PubChem BioAssay AID485281 (National Center for Advancing Translational Sciences (NCATS), 2010).
The campaign covered roughly 350,000 compounds. About 260 (0.074%) were called active. Inconclusive results, whose numbers are uncertain, are shown with a selection of clear calls. Calls follow the shape of the dose curve; as a rule, active = well fitted inhibition curve with a large enough effect; inconclusive = small, poorly fitted or top-dose-only effect; inactive = no such curve, though single readings can be large or run the other way. Where the call is inconclusive, the potency comes from a doubtful curve fit.

Target: Ferritin light chain (Equus caballus) (UniProt P02791)
Assay: qHTS Assay for Identification of Novel General Anesthetics; also: nearly all actives have a fitted effect of over 20% in size
Conditions: apoferritin/1-aminoanthracene competitive binding, fluorescence; activity change, negative = displacement: at 77.5 µM (top of the series)
Summary of the method: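 Concentration-response curves derived by four-parameter Hill fitting of normalized fluorescence, where compounds displaced 1-AMA from 10 uM horse apoferritin following a brief 10 min room-temperature incubation; propofol titration acted as positive control.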
% is scaled to controls: 0 for no effect and ±100 for the full control effect; potency is read from the fitted curve at half-maximal effect; tags tell the direction and shape of the fitted curve.

Sequence of UniProt P02791 (P02791 whole entry, looked up): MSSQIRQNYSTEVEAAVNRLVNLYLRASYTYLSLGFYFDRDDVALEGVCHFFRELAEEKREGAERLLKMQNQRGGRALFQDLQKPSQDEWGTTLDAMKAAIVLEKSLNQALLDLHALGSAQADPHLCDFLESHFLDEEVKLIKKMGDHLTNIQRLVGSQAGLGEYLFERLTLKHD

Q: With `CC(=O)Nc1ccc(C(=O)OCc2ccc(F)cc2)cc1` as the compound, how does the Potency read?
A: inconclusive: 28.2 µM [inhibitor, partial curve]

Q: `COc1ccc(NC(=O)C/C(C)=N/NC(=O)C(=O)Nc2cccc(Cl)c2C)c(OC)c1` was tested. Which Potency did it give?
A: inconclusive: 28.2 µM [inhibitor, partial curve]

Q: With `CCn1cc([N+](=O)[O-])c(C(=O)Nc2c(C)nn(Cc3c(F)c(F)c(F)c(F)c3F)c2C)n1` as the compound, how does the Potency read?
A: inconclusive: 28.2 µM [inhibitor, single point]

Q: Which Potency does the source give for `O=C(CSc1c2c(nc3ccc(Cl)cc13)CCCC2)N1CCCCC1` here?
A: inconclusive: 20 µM [inhibitor, partial curve]

Q: For `CC1(C)C(=O)Nc2ccccc2N1C(=O)COC(=O)c1ccc(Cl)c(S(=O)(=O)NCc2ccccc2)c1`, which Potency is on record?
A: inconclusive: 3.16 µM [inhibitor, full curve, poor fit]

Q: With `C=Cc1ccc(Cn2c(C(=O)O)c(CNCc3cc(OC)ccc3OC)c3ccc(C)cc32)cc1` as the compound, how does the Potency read?
A: inconclusive: 35.5 µM [inhibitor, single point]

Q: Which “activity change, negative = displacement” value does the source give for `Cc1ccc(S(=O)(=O)N/N=C2/CC(=O)CC(C)(C)C2)cc1[N+](=O)[O-]` here?
A: inactive: -12.4%

Q: `CCC12CN3CC(C)(CN(C1)C3c1c(C)[nH]c3ccccc13)C2=O` (stereo not given) was tested. Which Potency did it give?
A: inconclusive: 11.2 µM [inhibitor, partial curve]

Q: Which Potency does the source give for `CCOc1ccc(C2C(C(=O)Nc3ccc(C)cc3C)=C(C)Nc3c(C(=O)Nc4ccc(C)cc4)cnn32)cc1OC` (stereo not given) here?
A: inconclusive: 5.01 µM [inhibitor, full curve, poor fit]

Q: How did the Potency turn out when `COc1ccccc1/C=C/C(=O)NCC(=O)N/N=C(\CCC(=O)O)c1ccccc1` was run?
A: inconclusive: 28.2 µM [inhibitor, partial curve]

Q: For `c1ccc(-c2nnn(C34CC5CC(CC(C5)C3)C4)n2)cc1`, which Potency is on record?
A: inconclusive: 20 µM [inhibitor, partial curve]

Q: For `COC(=O)C1=C(c2ccccc2)c2ccccc2S(=O)(=O)N1CC(=O)Nc1cc(C)ccc1C`, which Potency is on record?
A: inconclusive: 4.47 µM [inhibitor, full curve]

Q: How did the “activity change, negative = displacement” value turn out when `CCOC(=O)Cn1nc(N2CCN(c3ccc(F)cc3)CC2)ccc1=O` was run?
A: inactive: -5.98%

Q: For `O=C(Cc1ccccc1)Nc1ccc2c(c1)CCC2`, which Potency is on record?
A: inconclusive: 17.8 µM [inhibitor, partial curve]

Q: With `Cc1cccc(-n2ncc3c(NCc4ccc5c(c4)OCO5)ncnc32)c1` as the compound, how does the Potency read?
A: inconclusive: 8.91 µM [inhibitor, partial curve]

Q: With `Oc1ccc(-c2nc3cnccn3c2Nc2ccc3c(c2)OCCO3)cc1` as the compound, how does the “activity change, negative = displacement” value read?
A: inactive: -20.2%

Q: How did the Potency turn out when `C/C(=N\NC(=O)C(=O)N/N=C(\C)c1cccc(O)c1)c1cccc(O)c1` was run?
A: inconclusive: 35.5 µM [inhibitor, partial curve]

Q: With `Cc1ccc(C2=NN(Cc3nnc(-c4ccccc4)o3)C(=O)SC2)cc1` as the compound, how does the Potency read?
A: inconclusive: 35.5 µM [inhibitor, partial curve]

Q: How did the Potency turn out when `O=S(=O)(N[C@@H]1C[C@H]2CC[C@@H]1C2)c1cccs1` was run?
A: inconclusive: 35.5 µM [inhibitor, partial curve]

Q: How did the Potency turn out when `Cc1ccc2c(c1)N(CC(=O)NCc1cccc(Cl)c1)C(=O)c1cccnc1O2` was run?
A: inconclusive: 39.8 µM [inhibitor, single point]

Q: For `COc1ccc(C(C(=O)NCC2CCCO2)N(Cc2ccc(F)cc2)C(=O)CNC(=O)c2ccco2)cc1OC` (stereo not given), which Potency is on record?
A: inconclusive: 50.1 µM [inhibitor, single point]

Q: Which Potency does the source give for `CC1CCCCN1C(=O)c1cc(-c2ccc(Cl)c(Cl)c2)on1` (stereo not given) here?
A: inconclusive: 10 µM [inhibitor, partial curve]

Q: For `CCC1CCCCN1S(=O)(=O)c1ccc2[nH]c(=O)ccc2c1` (stereo not given), which Potency is on record?
A: inconclusive: 20 µM [inhibitor, partial curve]

Q: With `COc1ccc(CCNC(=O)CSc2ccc(-c3ccccc3)nn2)cc1OC` as the compound, how does the “activity change, negative = displacement” value read?
A: inactive: -8.96%

Q: For `COc1ccccc1N1CCN(C(=O)c2cc(-c3ccco3)on2)CC1`, which Potency is on record?
A: inconclusive: 39.8 µM [inhibitor, partial curve]

Q: For `Cc1cc(C(=O)NCC(=O)OC(C(=O)Nc2cc(C(F)(F)F)ccc2Cl)c2ccccc2)ccc1[N+](=O)[O-]` (stereo not given), which Potency is on record?
A: inconclusive: 12.6 µM [inhibitor, partial curve]

Q: For `CCOC(=O)N1CCN(C(=O)c2ccc3c(=O)n(Cc4ccccc4OC)c(=S)[nH]c3c2)CC1`, which Potency is on record?
A: inconclusive: 3.55 µM [inhibitor, full curve, poor fit]

Q: `CCOc1ccc(N2C(=O)c3cccnc3C2Nc2ccc(Cl)cc2)cc1` (stereo not given) was tested. Which Potency did it give?
A: inconclusive: 31.6 µM [inhibitor, single point]

Q: Which “activity change, negative = displacement” value does the source give for `Cc1cccc(N2CCN(C(=O)c3ccc4ncsc4c3)CC2)c1C` here?
A: inactive: -16.1%

Q: For `CCOC(=O)Cn1c(=O)c2c(nc(N3CCCCC3)n2Cc2ccccc2)n(C)c1=O`, which Potency is on record?
A: inconclusive: 39.8 µM [inhibitor, partial curve]

Q: For `O=C(OCC(=O)C12CC3CC(CC(C3)C1)C2)c1cccnc1Cl`, which Potency is on record?
A: inconclusive: 12.6 µM [inhibitor, partial curve]

Q: How did the Potency turn out when `COc1cccc2cc(C(=O)C3=C(O)C(=O)N(CCN4CCOCC4)C3c3ccc(C(C)(C)C)cc3)oc12` (stereo not given) was run?
A: inconclusive: 31.6 µM [inhibitor, partial curve]

Q: `C/C(=N\NC(=O)c1cccc(Cl)c1)C1C(=O)c2ccccc2C1=O` was tested. Which Potency did it give?
A: inconclusive: 25.1 µM [inhibitor, partial curve]

Q: For `O=C(CNc1cccc(C(F)(F)F)c1)N/N=C/C1CCCCC1`, which Potency is on record?
A: inconclusive: 11.2 µM [inhibitor, partial curve]

Q: With `Cc1ccc(Cc2nnc3n(-c4ccccc4)nc(C(=O)c4ccccc4)n3c2=O)cc1` as the compound, how does the “activity change, negative = displacement” value read?
A: inactive: 2.27%

Q: How did the “activity change, negative = displacement” value turn out when `CC(=O)c1cc2c(cc1N(C(=O)c1ccco1)C(C(=O)NC1CCCC1)c1ccccc1F)OCO2` (stereo not given) was run?
A: inactive: -8.91%

Q: With `Nc1nc(SCC(=O)c2cc(F)ccc2F)n[nH]1` as the compound, how does the Potency read?
A: inconclusive: 28.2 µM [inhibitor, partial curve]

Q: Which “activity change, negative = displacement” value does the source give for `COc1ccc(CNC(=S)Nc2cc(C)ccc2C)cc1` here?
A: inactive: -22.2%

Q: `COC(=O)c1[nH]c2ccc(C)cc2c1NS(=O)(=O)c1ccc(F)c(C)c1` was tested. Which Potency did it give?
A: inconclusive: 39.8 µM [inhibitor, single point]

Q: With `COc1ccc(/C=C/C(=O)c2cc(Br)ccc2O)cc1OC` as the compound, how does the Potency read?
A: inconclusive: 25.1 µM [inhibitor, partial curve]
